These results are taken from patent US11969423B2, “Compounds” (GLAXOSMITHKLINE INTELLECTUAL PROPERTY DEVELOPMENT LIMITED, priority 2017, dated 2024).

Bounds are passed on as bounds.

The first experiment relates to Mycobacterium tuberculosis H37Rv in human macrophages THP-1. Description: Mycobacterium tuberculosis H37Rv in human macrophages THP-1 inhibition assay (intracellular assay). The note with it: Mycobacterium tuberculosis, H37RV, THP-1, intracellular, THP-1 macrophages, without the presence of ethionamide.
As usually defined, the IC50 is the concentration that inhibits the measured activity by half. Consider `O=C(CCC(F)(F)F)N1CCC(F)(c2cccnc2)CC1` [Example 2, 4,4,4-trifluoro-1-[4-fluoro-4-(3-pyridyl)-1-piperidyl]butan-1-one], for which the half-inhibitory concentration (IC50) was < 50 nM.
Take `O=C(CCC(F)(F)F)N1CCC(c2cncc(F)c2)CC1` [Example 3, 4,4,4-trifluoro-1-[4-(5-fluoro-3-pyridyl)-1-piperidyl]butan-1-one]: the concentration for half-maximal inhibition (IC50) was in the range of 50 to 250 nM.
For the molecule `O=C(CCC(F)(F)F)N1CCC(c2ccc(F)nc2)CC1` [Example 4, 4,4,4-trifluoro-1-[4-(6-fluoro-3-pyridyl)-1-piperidyl]butan-1-one], the concentration for half-maximal inhibition (IC50) lay within 50 to 250 nM.
The same measure, in the same setting: the value for `O=C(CCC(F)(F)F)N1CCC(c2ccc(C(F)(F)F)nc2)CC1` [Example 5, 4,4,4-trifluoro-1-[4-[6-(trifluoromethyl)-3-pyridyl]-1-piperidyl]butan-1-one] was 1000 to 10000 nM; that for `O=C(CCC(F)(F)F)N1CCC(c2cc(C(F)(F)F)ccn2)CC1` [Example 6, 4,4,4-trifluoro-1-[4-[4-(trifluoromethyl)-2-pyridyl]-1-piperidyl]butan-1-one] was 50 to 250 nM; that for `O=C(CCC(F)(F)F)N1CCC(c2cccc(C(F)(F)F)n2)CC1` [Example 8, 4,4,4-trifluoro-1-[4-[6-(trifluoromethyl)-2-pyridyl]-1-piperidyl]butan-1-one] was 50 to 250 nM.
Still for that read-out and setting: the value for `O=C(CCC(F)(F)F)N1CCC(c2cccc(F)n2)CC1` [Example 9, 4,4,4-trifluoro-1-[4-(6-fluoro-2-pyridyl)-1-piperidyl]butan-1-one] was 50 to 250 nM; that for `COc1ccc(C2CCN(C(=O)CCC(F)(F)F)CC2)cn1` [Example 10, 4,4,4-trifluoro-1-[4-(6-methoxy-3-pyridyl)-1-piperidyl]butan-1-one] was 50 to 250 nM; that for `O=C(CCC(F)(F)F)N1CCC(c2cccnc2C(F)(F)F)CC1` [Example 11, 4,4,4-trifluoro-1-[4-[2-(trifluoromethyl)-3-pyridyl]-1-piperidyl]butan-1-one] was 1000 to 10000 nM.
On the same count and under the same terms, the value for `COc1cncc(C2CCN(C(=O)CCC(F)(F)F)CC2)c1` [Example 12, 4,4,4-trifluoro-1-[4-(5-methoxy-3-pyridyl)-1-piperidyl]butan-1-one] was 50 to 250 nM.
Consider `O=C(CCC(F)(F)F)N1CCC(c2ncc(F)cc2F)CC1` [Example 13, 1-[4-(3,5-difluoro-2-pyridyl)-1-piperidyl]-4,4,4-trifluoro-butan-1-one], for which the IC50 was in the range of 50 to 250 nM.
Still for that read-out and setting: the value for `O=C(CCC(F)(F)F)N1CCC(c2ccc(F)cn2)CC1` [Example 17, 4,4,4-trifluoro-1-[4-(5-fluoro-2-pyridyl)-1-piperidyl]butan-1-one] was 50 to 250 nM; that for `O=C(CCC(F)(F)F)N1CCC(c2ccnc(F)c2)CC1` [Example 20, 4,4,4-trifluoro-1-(4-(2-fluoropyridin-4-yl)piperidin-1-yl)butan-1-one] was 30 nM.
In the case of `O=C(CCC(F)(F)F)N1CCC(c2cnc(F)c(F)c2)CC1` [Example 23, 1-(4-(5,6-difluoropyridin-3-yl)piperidin-1-yl)-4,4,4-trifluorobutan-1-one], the IC50 was < 50 nM.
As for `O=C(CCC(F)(F)F)N1CCC(c2cncc(C(F)(F)F)n2)CC1` [Example 24, 4,4,4-trifluoro-1-(4-(6-(trifluoromethyl)pyrazin-2-yl)piperidin-1-yl)butan-1-one], the concentration for half-maximal inhibition (IC50) fell in the range of 50 to 250 nM.
Still for that read-out and setting: the value for `O=C(CCC(F)(F)F)N1CCC(c2ccncc2F)CC1` [Example 26, 4,4,4-trifluoro-1-(4-(3-fluoropyridin-4-yl)piperidin-1-yl)butan-1-one] was 50 to 250 nM; that for `O=C(CCC(F)(F)F)N1CCC(c2cccc(Cl)n2)CC1` [Example 27, 1-(4-(6-chloropyridin-2-yl)piperidin-1-yl)-4,4,4-trifluorobutan-1-one] was 50 to 250 nM.
The same measure, in the same setting: in the case of `O=C(CCCC(F)(F)F)N1CCC(c2cncc(Cl)c2)CC1` [Example 31, 1-(4-(5-chloropyridin-3-yl)piperidin-1-yl)-5,5,5-trifluoropentan-1-one] it was 50 to 250 nM.
Still for that read-out and setting: the value for `O=C(CCC(F)(F)F)N1CCC(c2cncc(Cl)n2)CC1` [Example 32, 1-(4-(6-chloropyrazin-2-yl)piperidin-1-yl)-4,4,4-trifluorobutan-1-one] was 40 nM.
Take `O=C(CCC(F)(F)F)N1CCC(F)(c2ccccn2)CC1` [Example 33, 4,4,4-trifluoro-1-(4-fluoro-4-(pyridin-2-yl)piperidin-1-yl)butan-1-one]: the half-inhibitory concentration (IC50) was < 50 nM.
Still for that read-out and setting: in the case of `O=C(CCC(F)(F)F)N1CCC(F)(c2cncc(C(F)(F)F)c2)CC1` [Example 34, 4,4,4-trifluoro-1-(4-fluoro-4-(5-(trifluoromethyl)pyridin-3-yl)piperidin-1-yl)butan-1-one] it was < 50 nM; in that of `O=C(CCC(F)(F)F)N1CCC(c2cncc(Cl)c2)C1` (stereo not shown) [Example 38, 1-(3-(5-chloropyridin-3-yl)pyrrolidin-1-yl)-4,4,4-trifluorobutan-1-one], 1260 nM.

Still in this experiment, the particulars now being: intracellular, THP-1 macrophages, without the presence of ethionamide.
With `O=C(CCC(F)(F)F)N1CCC(c2ccnc(F)c2)CC1` [Example 20, 4,4,4-trifluoro-1-(4-(2-fluoropyridin-4-yl)piperidin-1-yl)butan-1-one], the IC50 was < 50 nM.
Consider `O=C(CCC(F)(F)F)N1CCC(c2cncc(Cl)n2)CC1` [Example 32, 1-(4-(6-chloropyrazin-2-yl)piperidin-1-yl)-4,4,4-trifluorobutan-1-one], for which the IC50 is < 50 nM.
Same read-out and setting: in the case of `O=C(CCC(F)(F)F)N1CCC(c2cncc(Cl)c2)C1` (stereo not shown) [Example 38, 1-(3-(5-chloropyridin-3-yl)pyrrolidin-1-yl)-4,4,4-trifluorobutan-1-one] it was 1000 to 10000 nM.
